# The other results are listed elsewhere or left out. The full chains were built here from the parent and the listed change. Inactive controls read about 0.05.
# B1: TEV protease; numbered along this chain (parent)
# chain: MGESLFKGPRDYNPISSSICHLTNESDGHTTSLYGIGFGPFIITNKHLFRRNNGTLVVQSLHGVFKVKDTTTLQQHLVDGRDMIIIRMPKDFPPFPQKLKFREPQREERICLVTTNFQTKSMSSMVSDTSCTFPSGDGIFWKHWIQTKDGQCGSPLVSTRDGFIVGIHSASNFTNTNNYFTSVPKNFMELLTNQEAQQWVSGWRLNADSVLWGGHKVFMVKPEEPFQPVKEATQL
# Variants of: B1
# Experiment: raw area under fraction-flipped curve 0-4 h after induction (AUC4h, not background-subtracted), DNA-recorder readout of cleavage of the substrate (dimensionless); higher = more cleavage of the substrate by the protease variant
# Settings: temperature: 34 °C; time window: 0-4 h after rhamnose induction
# Description: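 In vivo DNA recorder in E. coli TOP10(DE3) ΔrhaA at 34 °C. Each TEVp single-site mutant (parent TEVp 0) is paired with a single-site variant of the 7-mer TEVs (canonical ENLYFQ|S). The substrate sits between flexible linkers in a Bxb1-sfGFP-TEVs-SsrA fusion, so cleavage stabilises Bxb1 and speeds flipping of a recombination array, read by NGS. The value is the raw area under the fraction-flipped curve over 0-4 h after rhamnose induction (AUC4h), with ≥20 reads per time point. It is not background-subtracted; inactive controls average about 0.047.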
# 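Further: Bxb1 expression induced with 0.2% (w/v) L-rhamnose at OD600 near 0.5, cultures sampled hourly, flipped fraction per protease–substrate barcode pair counted by paired-end Illumina sequencing.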
Variant,area with substrate ENLYAQS,area with substrate ENLYEQS,area with substrate ENLYHQS,area with substrate ENLYKQS,area with substrate ENLYMQS,area with substrate ENLYQQS,area with substrate ENLYSQS,area with substrate ENLYTQS,area with substrate ENLYYQS,area with substrate ENLYDQS,area with substrate ENLYGQS,area with substrate ENLYIQS,area with substrate ENLYLQS,area with substrate ENLYNQS,area with substrate ENLYRQS,area with substrate ENLYVQS,area with substrate ENLYPQS,area with substrate ENLYWQS,area with substrate ENLYCQS
MGESLFKGPRDYNPISSSICHLTNESDGHTTSLYGIGFGPFIITNKHLFRRNNGTLVVQSLHGVFKVKDTTTLQQHLVDGRDMIIIRMPKDFPPFPQKLKFREPQREERICLVTTNFQTKSMSSMVSDTSCTFPSGDGIFWKHWIQTKDGQCGSPLVSTRDGFIVGIHSASNFTNTNNYFTSVPKNFMELLTNQEAQQWVSGWRLNADSVLWGGHKVFMVKPEEPFQPVKEATQG [L235G],0.0806,0.0847,0.0873,0.0628,0.0841,0.086,0.059,0.0944,0.0621,,,,,,,,,,
MGESLFKGPRDYNPISSSICHLTNESDGHTTSLYGIGFGPFIITNKHLFRRNNGTLVVQSLHGVFKVKDTTTLQQHLVDGRDMIIIRMPKDFPPFPQKLKFREPQREERICLVTTNFQTKSMSSMVSDTSCTFPSGDGIFWKHWIQTKDGQCGSPLVSTRDGFIVGIHSASNFTNTNNYFTSVPKNFMELLTNQEAQQWVSGWRLNADSVLWGGHKVFMVKPEEPFQPVKEATQA [L235A],0.0726,0.0602,0.0654,0.0444,0.0819,0.0624,,,0.0614,0.0546,0.0381,0.113,0.0936,0.078,0.0617,0.0969,,,
MGESLFKGPRDYNPISSSICHLTNESDGHTTSLYGIGFGPFIITNKHLFRRNNGTLVVQSLHGVFKVKDTTTLQQHLVDGRDMIIIRMPKDFPPFPQKLKFREPQREERICLVTTNFQTKSMSSMVSDTSCTFPSGDGIFWKHWIQTKDGQCGSPLVSTRDGFIVGIHSASNFTNTNNYFTSVPKNFMELLTNQEAQQWVSGWRLNADSVLWGGHKVFMVKPEEPFQPVKEATQS [L235S],0.0785,0.078,0.0692,,,,,,,0.0512,,0.139,,,0.0806,,0.0842,0.0764,
MGESLFKGPRDYNPISSSICHLTNESDGHTTSLYGIGFGPFIITNKHLFRRNNGTLVVQSLHGVFKVKDTTTLQQHLVDGRDMIIIRMPKDFPPFPQKLKFREPQREERICLVTTNFQTKSMSSMVSDTSCTFPSGDGIFWKHWIQTKDGQCGSPLVSTRDGFIVGIHSASNFTNTNNYFTSVPKNFMELLTNQEAQQWVSGWRLNADSVLWGGHKVFMVKPEESFQPVKEATQL [P225S],0.0484,,0.0699,,0.0966,,0.0657,,,0.0445,,,,0.0683,0.0382,,,0.0645,0.0858
MGESLFKGPRDYNPISSSICHLTNESDGHTTSLYGIGFGPFIITNKHLFRRNNGTLVVQSLHGVFKVKDTTTLQQHLVDGRDMIIIRMPKDFPPFPQKLKFREPQREERICLVTTNFQTKSMSSMVSDTSCTFPSGDGIFWKHWIQTKDGQCGSPLVSTRDGFIVGIHSASNFTNTNNYFTSVPKNFMELLTNQEAQQWVSGWRLNADSVLWGGHKVFMVKNEEPFQPVKEATQL [P222N],0.0553,0.0605,0.0687,0.0815,0.0786,,0.0727,0.085,,0.0583,0.0415,0.104,,0.0592,0.0655,,0.0639,,
MGESLFKGPRDYNPISSSICHLTNESDGHTTSLYGIGFGPFIITNKHLFRRNNGTLVVQSLHGVFKVKDTTTLQQHLVDGRDMIIIRMPKDFPPFPQKLKFREPQREERICLVTTNFQTKSMSSMVSDTSCTFPSGDGIFWKHWIQTKDGQCGSPLVSTRDGFIVGIHSASNFTNTNNYFTSVPKNFMELLTNQEAQQWVSGWRLNADSVLWGGHKVFMVKPEEPFQPVKEATML [Q234M],0.0744,0.0688,0.0601,0.075,0.079,0.0635,,,,0.0563,0.069,0.0979,,0.0629,,,0.0672,0.078,
MGESLFKGPRDYNPISSSICHLTNESDGHTTSLYGIGFGPFIITNKHLFRRNNGTLVVQSLHGVFKVKDTTTLQQHLVDGRDMIIIRMPKDFPPFPQKLKFREPQREERICLVTTNFQTKSMSSMVSDTSCTFPSGDGIFWKHWIQTKDGQCGSPLVSTRDGFIVGIHSASNFTNTNNYFTSVPKNFMELLTNQEAQQWVSGWRLNADSVLWGGHKVFMVKPEEPFQPVKEACQL [T233C],0.0401,0.0616,0.0717,0.0569,,,,,,,0.0433,0.118,0.108,0.0686,0.0551,0.0731,0.066,0.0619,0.0857
MGESLFKGPRDYNPISSSICHLTNESDGHTTSLYGIGFGPFIITNKHLFRRNNGTLVVQSLHGVFKVKDTTTLQQHLVDGRDMIIIRMPKDFPPFPQKLKFREPQREERICLVTTNFQTKSMSSMVSDTSCTFPSGDGIFWKHWIQTKDGQCGSPLVSTRDGFIVGIHSASNFTNTNNYFTSVPKNFMELLTNQEAQQWVSGWRLNADSVLWGGHKVFMVKPEEPFRPVKEATQL [Q227R],0.0652,,,0.0589,,0.0684,0.0725,,0.0644,0.0644,0.0645,0.119,,0.0765,0.0596,0.147,0.0592,,
MGESLFKGPRDYNPISSSICHLTNESDGHTTSLYGIGFGPFIITNKHLFRRNNGTLVVQSLHGVFKVKDTTTLQQHLVDGRDMIIIRMPKDFPPFPQKLKFREPQREERICLVTTNFQTKSMSSMVSDTSCTFPSGDGIFWKHWIQTKDGQCGSPLVSTRDGFIVGIHSASNFTNTNNYFTSVPKNFMELLTNQEAQQWVSGWRLNADSVLWGGHKVFMVKPEEPFYPVKEATQL [Q227Y],0.0699,0.0618,0.0708,0.0288,0.0683,,0.06,,,0.0711,0.0653,0.0726,0.0769,0.067,0.059,,0.0632,0.0721,0.0768
MGESLFKGPRDYNPISSSICHLTNESDGHTTSLYGIGFGPFIITNKHLFRRNNGTLVVQSLHGVFKVKDTTTLQQHLVDGRDMIIIRMPKDFPPFPQKLKFREPQREERICLVTTNFQTKSMSSMVSDTSCTFPSGDGIFWKHWIQTKDGQCGSPLVSTRDGFIVGIHSASNFTNTNNYFTSVPKNFMELLTNQEAQQWVSGWRLNADSVLWGGHKVFMVKPEEPFFPVKEATQL [Q227F],0.0655,0.0679,,0.0787,0.0831,0.0514,0.0663,0.0779,,0.035,,,,,,0.119,,0.0762,

# Source: the supplement of paper PMC12217912
